Test results reported in publication PMC7778598.
No constants are given. Whether binding was seen depends on the method and setting. Binding seen in cells or lysates may run through a third protein. Some binding calls cover weakened binding; strength is not graded here.

Chains of the proteins cited; added tags and fusions are not shown. Lines headed by an entry give the natural chain unless they say otherwise; changes in a name come on top.
UniProt P84077: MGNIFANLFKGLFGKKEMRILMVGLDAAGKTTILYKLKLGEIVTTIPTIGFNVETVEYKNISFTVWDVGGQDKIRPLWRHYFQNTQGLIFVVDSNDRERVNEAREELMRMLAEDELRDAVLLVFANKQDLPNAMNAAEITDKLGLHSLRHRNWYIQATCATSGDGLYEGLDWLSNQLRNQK
UniProt P46940: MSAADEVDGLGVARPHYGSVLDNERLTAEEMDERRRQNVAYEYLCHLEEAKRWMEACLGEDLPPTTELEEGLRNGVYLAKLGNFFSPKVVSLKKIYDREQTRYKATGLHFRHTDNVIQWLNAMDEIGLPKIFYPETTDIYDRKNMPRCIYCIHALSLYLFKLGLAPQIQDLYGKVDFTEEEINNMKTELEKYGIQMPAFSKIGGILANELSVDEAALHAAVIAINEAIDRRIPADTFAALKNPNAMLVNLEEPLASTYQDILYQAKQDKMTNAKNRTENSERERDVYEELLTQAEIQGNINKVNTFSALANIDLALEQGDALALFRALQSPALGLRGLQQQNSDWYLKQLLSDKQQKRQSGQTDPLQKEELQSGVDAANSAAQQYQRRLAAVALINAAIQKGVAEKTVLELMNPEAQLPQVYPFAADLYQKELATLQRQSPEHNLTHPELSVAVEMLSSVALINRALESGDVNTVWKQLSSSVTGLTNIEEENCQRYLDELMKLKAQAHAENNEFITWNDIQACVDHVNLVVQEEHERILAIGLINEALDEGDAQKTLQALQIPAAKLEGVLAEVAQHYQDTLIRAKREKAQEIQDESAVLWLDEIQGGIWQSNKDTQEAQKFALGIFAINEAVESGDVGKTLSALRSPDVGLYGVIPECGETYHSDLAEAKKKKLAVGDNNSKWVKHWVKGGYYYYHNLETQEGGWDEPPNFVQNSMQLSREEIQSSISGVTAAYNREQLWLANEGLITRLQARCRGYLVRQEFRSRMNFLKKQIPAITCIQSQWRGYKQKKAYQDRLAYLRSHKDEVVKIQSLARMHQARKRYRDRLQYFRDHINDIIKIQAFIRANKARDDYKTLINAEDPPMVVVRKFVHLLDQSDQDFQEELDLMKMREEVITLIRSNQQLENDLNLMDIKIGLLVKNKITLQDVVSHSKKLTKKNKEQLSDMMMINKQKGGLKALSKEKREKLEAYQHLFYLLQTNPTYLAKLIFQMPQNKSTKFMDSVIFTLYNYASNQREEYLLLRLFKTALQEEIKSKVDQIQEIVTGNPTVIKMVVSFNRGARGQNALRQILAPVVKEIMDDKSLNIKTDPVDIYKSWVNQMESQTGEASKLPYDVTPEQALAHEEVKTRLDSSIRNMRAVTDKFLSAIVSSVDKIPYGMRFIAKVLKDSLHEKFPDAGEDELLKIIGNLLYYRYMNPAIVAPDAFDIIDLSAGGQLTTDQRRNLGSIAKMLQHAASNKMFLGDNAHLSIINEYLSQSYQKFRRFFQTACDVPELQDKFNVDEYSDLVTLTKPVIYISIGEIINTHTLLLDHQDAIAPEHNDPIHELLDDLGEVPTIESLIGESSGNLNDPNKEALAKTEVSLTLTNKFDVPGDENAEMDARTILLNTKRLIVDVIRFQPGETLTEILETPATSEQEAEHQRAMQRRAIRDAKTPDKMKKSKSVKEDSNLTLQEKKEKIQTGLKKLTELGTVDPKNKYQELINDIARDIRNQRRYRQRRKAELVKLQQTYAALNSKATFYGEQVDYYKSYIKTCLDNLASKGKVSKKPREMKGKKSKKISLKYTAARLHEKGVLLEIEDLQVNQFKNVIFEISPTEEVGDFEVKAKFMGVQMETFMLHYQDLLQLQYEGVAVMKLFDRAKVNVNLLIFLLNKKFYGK

Experiments:
[1] = biological target: ADP-ribosylation factor 1 (human (in HCT116; endogenous or overexpressed not stated)) (UniProt P84077); test: co-IP; immunoprecipitation from cells treated with azelastine (Figure 6A); concentration, time and cell line not given
[2] = biological target: ADP-ribosylation factor 1 (human (in HCT116; endogenous or overexpressed not stated)) (UniProt P84077); test: co-IP; cell lysates precleared with IgG and protein A/G Sepharose beads (4 °C, 1 h), primary antibody overnight at 4 °C, protein A/G Sepharose beads 4 h, washed with PBS and lysis buffer, Western blotting; HCT116 and RKO cells (Figure 5B); with and without ARF1 overexpression (Figure 5H); untreated cells of Figure 6A
[3] = biological target: wild-type ARF1 (UniProt P84077); test: as above
[4] = biological target: flag-ARF1 (UniProt P84077); test: co-IP; HCT116 cells transfected with the flag-ARF1 plasmid and plasmids for wild-type or truncated IQGAP1; lysates immunoprecipitated using flag antibody, bound proteins analysed

Substance	binding [1]	binding [2]	binding [3]	binding [4]
IQ-domain GTPase-activating protein 1 (from UniProt P46940 1-1657)	no binding (condition: cells treated with azelastine)	binds	binds	
IQGAP1-∆RGCT (from UniProt P46940 1-1275) (domain or fragment)				binds
IQGAP1-∆RGCT/GRD (from UniProt P46940 1-1003) (domain or fragment)				binds
wild-type IQGAP1 (from UniProt P46940 1-1657)				binds
